# From the supplement of paper PMC3334620
# The full ranking holds about 33,000 sequences; the median of “E-score (-0.5 to 0.5)” is about -0.043, and the highest 2% start at about 0.37. The list shows a part of the results.
# Target: T1, Upc2 (UniProt Q12151)
# T1 sequence: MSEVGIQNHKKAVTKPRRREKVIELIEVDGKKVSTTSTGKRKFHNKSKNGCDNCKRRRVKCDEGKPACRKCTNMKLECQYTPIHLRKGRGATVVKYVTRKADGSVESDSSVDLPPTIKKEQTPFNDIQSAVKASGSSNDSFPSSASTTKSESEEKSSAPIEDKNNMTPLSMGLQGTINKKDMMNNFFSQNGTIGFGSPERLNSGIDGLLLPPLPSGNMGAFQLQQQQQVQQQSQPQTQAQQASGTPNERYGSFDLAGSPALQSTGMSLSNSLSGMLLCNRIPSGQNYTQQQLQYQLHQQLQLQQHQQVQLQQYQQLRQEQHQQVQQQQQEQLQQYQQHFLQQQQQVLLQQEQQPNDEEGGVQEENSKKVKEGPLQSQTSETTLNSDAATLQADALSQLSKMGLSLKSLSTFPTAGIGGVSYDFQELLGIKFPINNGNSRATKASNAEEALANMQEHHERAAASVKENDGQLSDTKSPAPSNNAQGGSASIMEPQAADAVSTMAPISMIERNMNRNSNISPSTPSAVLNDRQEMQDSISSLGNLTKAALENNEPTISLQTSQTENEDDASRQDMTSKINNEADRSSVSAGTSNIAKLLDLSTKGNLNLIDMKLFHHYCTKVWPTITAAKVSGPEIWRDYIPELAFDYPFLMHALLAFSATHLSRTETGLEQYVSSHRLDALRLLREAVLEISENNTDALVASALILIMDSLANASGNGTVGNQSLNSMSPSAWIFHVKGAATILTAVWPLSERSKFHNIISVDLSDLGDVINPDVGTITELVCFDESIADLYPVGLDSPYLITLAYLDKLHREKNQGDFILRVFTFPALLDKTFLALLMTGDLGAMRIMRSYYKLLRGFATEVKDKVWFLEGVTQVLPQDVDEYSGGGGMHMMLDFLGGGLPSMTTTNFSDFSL
# Assay: PBM E-score (8-mer binding enrichment) (E-score (-0.5 to 0.5)); higher = stronger / more preferred TF binding; most listed sequences are background and not binding sites
# Conditions: protein concentration: 200 nM; construct: GST-full length
# How it was run: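 Using PURExpress in vitro transcription/translation, GST-tagged yeast transcription factors were made in full-length or DNA-binding-domain form. These were applied at about 100-200 nM to double-stranded universal all-10-mer Agilent arrays, and bound protein was detected with fluorescent anti-GST. Scans were normalised with masliner before the Universal PBM Analysis Suite assigned E-scores to ungapped eight-base words pooled with their reverse complements.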
row,Sequence,PBM E-score
1,AAGACATT,-0.101
2,GATCGGTA,0.188
3,ACGATCTG,0.273
4,AGCAGGGC,-0.0834
5,GCACCGCC,-0.115
6,GCATGAAA,0.0207
7,CGCCCTGA,-0.0614
8,CTGGTATC,-0.187
9,GAGCTCCA,-0.188
10,ATAATTAA,0.122
11,AGCATCAC,-0.142
12,ACAAGTGT,-0.0749
13,ACATGGAG,-0.162
14,CCCAGTGC,0.00171
15,GATCGAAC,0.113
16,CAAGTTTA,0.0199
17,GCGGTTAC,0.0818
18,GTTTAGTA,0.315
19,AAGCTCTG,-0.266
20,CTAAGCAA,-0.0969
21,ACGAATTG,0.266
22,GTTTTGCA,-0.014
23,AGTTTCTG,-0.125
24,GAGCTTCA,-0.132
25,CGAACGAA,0.398

row,Sequence,PBM E-score
1,AGCTCTCA,-0.214
2,GGCCTTGA,-0.122
3,TCTTTCAA,-0.0554
4,CTTTGACC,0.0273
5,ACGTACCA,0.255
6,AATCTCTC,-0.0336
7,GCATCGGA,-0.0207
8,CGGATTCA,-0.0988
9,GCTGAGGA,-0.145
10,ACGGTTAG,0.0076
11,TAACAGCA,0.0585
12,AGGAATGC,0.0204
13,AATCCGAG,0.158
14,AACAGCAC,0.0284
15,ATAGCAGC,-0.337
16,AAATAAGT,0.0268
17,ACCCTAGC,-0.144
18,ATACATAC,0.153
19,GTAGTGGA,-0.0616
20,ACCACTCG,0.178
21,CCCTCCTC,-0.082
22,AGTCTTTG,-0.0249
23,CTCATTTC,-0.143
24,CGTGAACA,0.11
25,AATTAGGC,0.0573

row,Sequence,PBM E-score
1,ATATGTGC,-0.0742
2,ATTTGCCC,-0.185
3,ACTGGTAC,0.164
4,CGTCATGA,-0.0226
5,ATACCGAG,0.0941
6,CATAGAGG,-0.151
7,GCGGGTAA,-0.117
8,AGCATTAT,-0.183
9,GGCCGTAC,0.389
10,ACCCGAAA,0.0519
11,ACGAGGTC,0.371
12,GGGTATTA,0.0508
13,ACAAACAA,-0.0593
14,CTGCATCC,-0.137
15,ATATATTC,0.148
16,CAGTCATC,-0.152
17,CCACCTGC,-0.125
18,CCTTTCTC,-0.0694
19,CGTACCGA,0.398
20,TAGGTCAA,-0.0492
21,CGTAATAG,0.266
22,ATAGTCTA,0.0679
23,TCCGTCCA,-0.148
24,CCTAATTA,-0.183
25,CCCCCATC,-0.166

row,Sequence,PBM E-score
1,GTCCTTAA,0.0114
2,AATCCGGC,-0.144
3,AGTTGCAC,-0.186
4,ATGTTAGC,-0.106
5,ACTCAATC,-0.0344
6,TAGTTAGA,-0.0336
7,CAGGTGCG,-0.0712
8,AGTCGTGC,-0.127
9,AGGTCCCC,-0.328
10,ACTGGCTC,-0.184
11,AATCAACG,0.128
12,ACGTTCGC,0.14
13,CCATGAAC,-0.082
14,AGAACGGC,0.0546
15,TATGGACA,-0.00055
16,ATAGCGTC,-0.0111
17,GCCACGCC,-0.196
18,CACTTCGA,0.11
19,CTACAGGC,-0.151
20,GGTTGTAC,0.154
21,CAAAAATA,0.0741
22,ATGAACGC,0.14
23,GTCGAAAC,-0.123
24,TCCTATAA,-0.149
25,CAATAATG,-0.0173

row,Sequence,PBM E-score
1,TGAAGAAA,-0.193
2,GAAGACAA,0.0592
3,GCCTAGAA,-0.0569
4,CTATCCGA,0.222
5,CAGACTGG,-0.239
6,CCACATCC,-0.124
7,CCAAATCC,-0.248
8,ACATTTCC,-0.00644
9,GCGAGGGA,0.0825
10,ACATGTTG,-0.0106
11,GATTCAGC,0.0295
12,CCTCACAC,-0.0488
13,ACTACTGC,0.07
14,CGAGCTCC,0.291
15,GTTCCTAA,0.0853
16,ACATTGAC,-0.0206
17,CCAACTCA,-0.0745
18,GCATGAGA,-0.175
19,GGCACAAC,-0.279
20,CAAAGGTA,0.047
21,TGTTCCAA,-0.134
22,CCGCAGCG,-0.139
23,GAACCGTA,0.269
24,GCGTAAAC,0.352
25,CTCGCTGA,-0.136

row,Sequence,PBM E-score
1,ACTTTGGC,0.0736
2,ACTATCGA,0.0346
3,ATAAAACG,0.28
4,AGGGGTGA,-0.236
5,CAAACGGG,0.351
6,AATGTCCC,-0.303
7,AGACCGGC,-0.0634
8,AATCCGAA,0.0902
9,GCATTTCA,-0.103
10,GATATGGA,0.047
11,AGGTTCGG,0.022
12,AGGCGACA,-0.168
13,ATACATTA,0.0264
14,ATCCGTGG,-0.2
15,AAGCTGGC,0.0255
16,CAGGGAAA,-0.0386
17,GCGACCAC,0.0332
18,AGAACCGA,0.00113
19,GTACCCAA,0.188
20,CACATCTA,0.0208
21,GACTAGTC,-0.19
22,AGTATACC,0.124
23,CAGAACCC,0.122
24,CTGCCCTC,-0.24
25,GCGCGGGA,0.0432

row,Sequence,PBM E-score
1,GCGCCACC,-0.24
2,ATTTCATC,-0.129
3,CAGGAATC,-0.121
4,TATAATGA,0.26
5,AGAACCAG,-0.117
6,GGTTCAAA,0.00821
7,ATTAAGTG,0.0863
8,CGCACCAG,0.0905
9,CGTATCCC,0.315
10,GTTTTCTA,0.0906
11,ATAATCCG,0.00884
12,GCCCTGTA,0.0279
13,AGTACTTC,-0.0175
14,GAAAAAGA,0.0701
15,GCAAAAAA,0.101
16,ATTCCGGA,-0.126
17,GCGTTACA,-0.148
18,ATCTGTGG,-0.294
19,GCAGCAGA,-0.0595
20,TACAGGAA,0.0741
21,CTACCTTA,0.0109
22,ATGATTCG,0.12
